# Experimental data from paper PMC12820563.
# The list shows a part of the results. The list includes weakly bound sequences.
# Target: T1, MBP-FoxP3dN (UniProt Q99JB6)
# T1 sequence: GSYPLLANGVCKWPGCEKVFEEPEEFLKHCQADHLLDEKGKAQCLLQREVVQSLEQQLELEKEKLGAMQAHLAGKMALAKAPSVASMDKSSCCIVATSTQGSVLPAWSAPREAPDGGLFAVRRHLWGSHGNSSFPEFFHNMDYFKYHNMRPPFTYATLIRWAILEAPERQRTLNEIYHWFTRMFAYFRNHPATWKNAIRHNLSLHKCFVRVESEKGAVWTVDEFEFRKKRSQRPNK
# Assay: PD-seq (MBP pull-down with sequencing)
# Conditions: 20 mM Tris-HCl pH 7.5, 100 mM NaCl, 1.5 mM MgCl2, 0.4 uM protein, 0.1 uM dsDNA library, 30 min, room temperature, amylose pull-down; high values mean tight binding; double strand, one strand shown
row,Sequence,binding signal (RPM ratio (pull-down/input))
1,GATGATTGTTCTCCCAGCTGATGAATTCTCAACTTCGAGTAAACAAATTTTCCTAATCTTTCTGTTCAAGCGCCATCTAC,0.258
2,GATGATTGTTCTCCCAGCTGATGAATTCACTTAGTCGAGTAAACAAATTTTCCTAATCTTTCTGTTCAAGCGCCATCTAC,0.333
3,GATGATTGTTCTCCCAGCTGATGAATTACCGGGGTCGAGTAAACAAATTTTCCTAATCTTTCTGTTCAAGCGCCATCTAC,0.219
4,GATGATTGTTCTCCCAGCTGATGAATTCTAAGGTTCGAGTAAACAAATTTTCCTAATCTTTCTGTTCAAGCGCCATCTAC,0.256
5,GATGATTGTTCTCCCAGCTGATGAATTGCGTTATTCGAGTAAACAAATTTTCCTAATCTTTCTGTTCAAGCGCCATCTAC,2.84
6,GATGATTGTTCTCCCAGCTGATGAATTAACCACTTCGAGTAAACAAATTTTCCTAATCTTTCTGTTCAAGCGCCATCTAC,0.297
7,GATGATTGTTCTCCCAGCTGATGAATTTTGGTAATCGAGTAAACAAATTTTCCTAATCTTTCTGTTCAAGCGCCATCTAC,0.815
8,GATGATTGTTCTCCCAGCTGATGAATTTTGGCGTTCGAGTAAACAAATTTTCCTAATCTTTCTGTTCAAGCGCCATCTAC,1.58
9,GATGATTGTTCTCCCAGCTGATGAATTATCTCATTCGAGTAAACAAATTTTCCTAATCTTTCTGTTCAAGCGCCATCTAC,0.381
10,GATGATTGTTCTCCCAGCTGATGAATTCTTTATATCGAGTAAACAAATTTTCCTAATCTTTCTGTTCAAGCGCCATCTAC,0.357
11,GATGATTGTTCTCCCAGCTGATGAATTCACAAAGTCGAGTAAACAAATTTTCCTAATCTTTCTGTTCAAGCGCCATCTAC,0.188
12,GATGATTGTTCTCCCAGCTGATGAATTGGTATTGTCGAGTAAACAAATTTTCCTAATCTTTCTGTTCAAGCGCCATCTAC,2.4
13,GATGATTGTTCTCCCAGCTGATGAATTTTTCGAGTCGAGTAAACAAATTTTCCTAATCTTTCTGTTCAAGCGCCATCTAC,0.235
14,GATGATTGTTCTCCCAGCTGATGAATTAGAAGTTTCGAGTAAACAAATTTTCCTAATCTTTCTGTTCAAGCGCCATCTAC,0.315
15,GATGATTGTTCTCCCAGCTGATGAATTGAATCGGTCGAGTAAACAAATTTTCCTAATCTTTCTGTTCAAGCGCCATCTAC,0.249
16,GATGATTGTTCTCCCAGCTGATGAATTTTGCCGTTCGAGTAAACAAATTTTCCTAATCTTTCTGTTCAAGCGCCATCTAC,2.17
17,GATGATTGTTCTCCCAGCTGATGAATTTTTTCTCTCGAGTAAACAAATTTTCCTAATCTTTCTGTTCAAGCGCCATCTAC,0.175
18,GATGATTGTTCTCCCAGCTGATGAATTGCTACTTTCGAGTAAACAAATTTTCCTAATCTTTCTGTTCAAGCGCCATCTAC,0.877
19,GATGATTGTTCTCCCAGCTGATGAATTTATAGTTTCGAGTAAACAAATTTTCCTAATCTTTCTGTTCAAGCGCCATCTAC,1.54
20,GATGATTGTTCTCCCAGCTGATGAATTGAATACGTCGAGTAAACAAATTTTCCTAATCTTTCTGTTCAAGCGCCATCTAC,0.489

row,Sequence,binding signal (RPM ratio (pull-down/input))
1,GATGATTGTTCTCCCAGCTGATGAATTGCTTGCCTCGAGTAAACAAATTTTCCTAATCTTTCTGTTCAAGCGCCATCTAC,1.14
2,GATGATTGTTCTCCCAGCTGATGAATTGATTTTTTCGAGTAAACAAATTTTCCTAATCTTTCTGTTCAAGCGCCATCTAC,1.07
3,GATGATTGTTCTCCCAGCTGATGAATTAAACCTTTCGAGTAAACAAATTTTCCTAATCTTTCTGTTCAAGCGCCATCTAC,0.318
4,GATGATTGTTCTCCCAGCTGATGAATTTACACTCTCGAGTAAACAAATTTTCCTAATCTTTCTGTTCAAGCGCCATCTAC,0.71
5,GATGATTGTTCTCCCAGCTGATGAATTGGCGAATTCGAGTAAACAAATTTTCCTAATCTTTCTGTTCAAGCGCCATCTAC,0.898
6,GATGATTGTTCTCCCAGCTGATGAATTGCCTTGTTCGAGTAAACAAATTTTCCTAATCTTTCTGTTCAAGCGCCATCTAC,0.847
7,GATGATTGTTCTCCCAGCTGATGAATTTAAGCAATCGAGTAAACAAATTTTCCTAATCTTTCTGTTCAAGCGCCATCTAC,2.48
8,GATGATTGTTCTCCCAGCTGATGAATTCAAGAGTTCGAGTAAACAAATTTTCCTAATCTTTCTGTTCAAGCGCCATCTAC,0.318
9,GATGATTGTTCTCCCAGCTGATGAATTCACTCTATCGAGTAAACAAATTTTCCTAATCTTTCTGTTCAAGCGCCATCTAC,0.353
10,GATGATTGTTCTCCCAGCTGATGAATTCGCCTGCTCGAGTAAACAAATTTTCCTAATCTTTCTGTTCAAGCGCCATCTAC,0.699
11,GATGATTGTTCTCCCAGCTGATGAATTTCTGTTATCGAGTAAACAAATTTTCCTAATCTTTCTGTTCAAGCGCCATCTAC,1.07
12,GATGATTGTTCTCCCAGCTGATGAATTGCTCTGTTCGAGTAAACAAATTTTCCTAATCTTTCTGTTCAAGCGCCATCTAC,0.567
13,GATGATTGTTCTCCCAGCTGATGAATTACTCGGCTCGAGTAAACAAATTTTCCTAATCTTTCTGTTCAAGCGCCATCTAC,0.234
14,GATGATTGTTCTCCCAGCTGATGAATTCAGTGCATCGAGTAAACAAATTTTCCTAATCTTTCTGTTCAAGCGCCATCTAC,1.37
15,GATGATTGTTCTCCCAGCTGATGAATTGAACTTCTCGAGTAAACAAATTTTCCTAATCTTTCTGTTCAAGCGCCATCTAC,0.284
16,GATGATTGTTCTCCCAGCTGATGAATTCTTCACATCGAGTAAACAAATTTTCCTAATCTTTCTGTTCAAGCGCCATCTAC,0.332
17,GATGATTGTTCTCCCAGCTGATGAATTCGGAAAATCGAGTAAACAAATTTTCCTAATCTTTCTGTTCAAGCGCCATCTAC,0.193
18,GATGATTGTTCTCCCAGCTGATGAATTGCGGTTTTCGAGTAAACAAATTTTCCTAATCTTTCTGTTCAAGCGCCATCTAC,1.42
19,GATGATTGTTCTCCCAGCTGATGAATTGACCGCGTCGAGTAAACAAATTTTCCTAATCTTTCTGTTCAAGCGCCATCTAC,0.46
20,GATGATTGTTCTCCCAGCTGATGAATTGCGCACATCGAGTAAACAAATTTTCCTAATCTTTCTGTTCAAGCGCCATCTAC,1.71
